Data published in article PMC2605406 (Science (New York, N.Y.), 2008).

Target: QseC (Escherichia coli, UniProt Q8X524)
Experiment: inhibition of tritiated norepinephrine binding, QseC in liposomes
Conditions: against 5 uM tritiated NE

UniProt Q8X524, sequence (Q8X524 whole entry, looked up): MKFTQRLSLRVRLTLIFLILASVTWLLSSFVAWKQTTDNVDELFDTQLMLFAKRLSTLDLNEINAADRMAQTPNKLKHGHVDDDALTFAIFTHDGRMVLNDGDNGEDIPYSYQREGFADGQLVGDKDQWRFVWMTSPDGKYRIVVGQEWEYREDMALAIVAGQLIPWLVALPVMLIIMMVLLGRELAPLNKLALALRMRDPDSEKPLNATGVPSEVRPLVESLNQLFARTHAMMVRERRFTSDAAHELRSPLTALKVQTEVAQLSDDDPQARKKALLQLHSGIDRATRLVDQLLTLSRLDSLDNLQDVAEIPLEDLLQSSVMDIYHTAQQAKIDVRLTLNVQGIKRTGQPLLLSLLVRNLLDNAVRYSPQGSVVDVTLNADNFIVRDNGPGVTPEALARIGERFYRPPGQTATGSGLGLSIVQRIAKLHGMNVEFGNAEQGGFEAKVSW

Cc1ccc(N(CC2=NCCN2)c2cccc(O)c2)cc1 [phentolamine]
inhibition of tritiated norepinephrine binding, QseC in liposomes: phentolamine (an alpha-adrenergic antagonist) antagonizes this binding to block QseC autophosphorylation
